# Test results taken from PubChem BioAssay (NCATS).
# Records with an inconclusive call do not appear. Calls follow the shape of the dose curve; as a rule, active = well fitted curve in the direction sought with a large enough effect; inconclusive = small, poorly fitted or top-dose-only effect, or another doubt; inactive = no such curve, though single readings can be large; an effect the other way counts as inactive or inconclusive. More than one record can exist for a structure, and the calls need not agree. Not every entry of the source has a single result; some have several. This list holds those alone. The source may hold further records. The values listed for one entry are repeats in other runs, samples, wells, individuals or studies. Brackets tell where a record comes from. Letters hold for one entry only.
# Tests used:
# [1] = qHTS of pediatric cancer cell lines to identify multiple opportunities for drug repurposing: Primary screen for SK-N-MC cells (AID 1347093)
# [2] = qHTS of pediatric cancer cell lines to identify multiple opportunities for drug repurposing: Primary screen for NB-EBc1 cells (AID 1347095)
# [3] = qHTS of pediatric cancer cell lines to identify multiple opportunities for drug repurposing: Primary screen for NB1643 cells (AID 1347099); also: nearly all actives have a fitted effect of over 50% in size
# [4] = qHTS of pediatric cancer cell lines to identify multiple opportunities for drug repurposing: Primary screen for SK-N-SH cells (AID 1347098); also: nearly all actives have a fitted effect of over 65% in size
# Summary of the method: (§1)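 Cells (500-1,000/well) rested 5 h, then received compounds for 48 h; metabolically active cells were measured by CellTiter-Glo luminescence. Final concentrations spanned up to 46 µM (MIPE, 11-point) or 0.59 nM-46 µM (NPC, 8-point) in primary screens, 11-point in follow-ups.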
# [5] = qHTS of pediatric cancer cell lines to identify multiple opportunities for drug repurposing: Primary screen for DAOY cells (AID 1347090); also: nearly all actives have a fitted effect of over 55% in size
# Summary of the method: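 Cell viability, CellTiter-Glo luminescence; 500-1,000 cells/well, 8- or 11-point titration, 48 h compound exposure at 37 degrees C, 5% CO2. Controls: DMSO neutral, bortezomib 2.3 µM final as positive.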
# [6] = qHTS of pediatric cancer cell lines to identify multiple opportunities for drug repurposing: Primary screen for A673 cells (AID 1347092); also: nearly all actives have a fitted effect of over 45% in size
# Summary of the method: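 Luminescence from CellTiter-Glo, taken after 15 min at room temperature, served as the proxy for metabolically active cells following 48 h treatment. Both potency and efficacy were taken from curves fitted to the titration data.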
# [7] = qHTS of pediatric cancer cell lines to identify multiple opportunities for drug repurposing: Primary screen for Saos-2 cells (AID 1347097); also: nearly all actives have a fitted effect of over 40% in size
# Summary of the method: (§2)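 Luminescence from CellTiter-Glo served as readout of metabolically active cells after 48 h compound exposure. Titrations: MIPE 11-point, from 0.78 nM; NPC 8-point, from 0.59 nM (final). Concentration-response curves came straight from the primary screen.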
# [8] = qHTS of pediatric cancer cell lines to identify multiple opportunities for drug repurposing: Primary screen for LAN-5 cells (AID 1347100)
# Summary of the method: as §1
# [9] = qHTS of pediatric cancer cell lines to identify multiple opportunities for drug repurposing: Primary screen for RD cells (AID 1347104); also: nearly all actives have a fitted effect of over 55% in size
# Summary of the method: as §2
# Potency is read from the fitted curve at half-maximal effect.
smiles,measurement,setting,value
CS(=O)(=O)OCCCCOS(C)(=O)=O,Potency,[1],inactive [sample A] and active: 20.9 µM [sample B]
same,Potency,[2],inactive [sample A] and active: 16.6 µM [sample B]
CC1=C(C)C(=O)C(C(CCCCCC(=O)O)c2ccccc2)=C(C)C1=O (stereo not drawn),Potency,[3],active: 26.4 µM [sample A] and inactive [sample B]
Cc1cccc(C)c1OCC(=O)N[C@@H](Cc1ccccc1)[C@@H](O)C[C@H](Cc1ccccc1)NC(=O)[C@H](C(C)C)N1CCCNC1=O,Potency,[4],inactive [sample A] and active: 17.2 µM [sample B]
CC1(C)CCC(C)(C)c2cc(NC(=O)c3ccc(C(=O)O)cc3)ccc21,Potency,[5],active: 18.7 µM [sample A] and inactive [sample B]
same,Potency,[6],active: 2.96 µM [sample A] and inactive [sample B]
same,Potency,[3],active: 11.8 µM [sample A] and inactive [sample B]
Clc1ccc(C(Cn2ccnc2)OCc2ccc(Sc3ccccc3)cc2)c(Cl)c1 (stereo not drawn),Potency,[6],inactive [sample A] and active: 18.7 µM [sample B]
same,Potency,[1],inactive [sample A] and active: 29.6 µM [sample B]
same,Potency,[7],inactive [sample A] and active: 29.6 µM [sample B]
same,Potency,[3],inactive [sample A] and active: 16.6 µM [sample B]
same,Potency,[8],inactive [sample A] and active: 23.5 µM [sample B]
same,Potency,[9],inactive [sample A] and active: 33.2 µM [sample B]
